Data from publication PMC4336329 (PLoS ONE, 2015).
In all, about 310,000 compounds went through this assay and about 2,200 (0.71%) showed an effect of 50% or more. Effects have a minus sign here. Some of the results follow.

Target: human ether-à-go-go-related gene (hERG) potassium channel (human, UniProt Q12809)
Test: primary screen, population patch clamp on CHO cells stably expressing hERG

Sequence of human ether-à-go-go-related gene (hERG) potassium channel (Q12809 whole entry, looked up): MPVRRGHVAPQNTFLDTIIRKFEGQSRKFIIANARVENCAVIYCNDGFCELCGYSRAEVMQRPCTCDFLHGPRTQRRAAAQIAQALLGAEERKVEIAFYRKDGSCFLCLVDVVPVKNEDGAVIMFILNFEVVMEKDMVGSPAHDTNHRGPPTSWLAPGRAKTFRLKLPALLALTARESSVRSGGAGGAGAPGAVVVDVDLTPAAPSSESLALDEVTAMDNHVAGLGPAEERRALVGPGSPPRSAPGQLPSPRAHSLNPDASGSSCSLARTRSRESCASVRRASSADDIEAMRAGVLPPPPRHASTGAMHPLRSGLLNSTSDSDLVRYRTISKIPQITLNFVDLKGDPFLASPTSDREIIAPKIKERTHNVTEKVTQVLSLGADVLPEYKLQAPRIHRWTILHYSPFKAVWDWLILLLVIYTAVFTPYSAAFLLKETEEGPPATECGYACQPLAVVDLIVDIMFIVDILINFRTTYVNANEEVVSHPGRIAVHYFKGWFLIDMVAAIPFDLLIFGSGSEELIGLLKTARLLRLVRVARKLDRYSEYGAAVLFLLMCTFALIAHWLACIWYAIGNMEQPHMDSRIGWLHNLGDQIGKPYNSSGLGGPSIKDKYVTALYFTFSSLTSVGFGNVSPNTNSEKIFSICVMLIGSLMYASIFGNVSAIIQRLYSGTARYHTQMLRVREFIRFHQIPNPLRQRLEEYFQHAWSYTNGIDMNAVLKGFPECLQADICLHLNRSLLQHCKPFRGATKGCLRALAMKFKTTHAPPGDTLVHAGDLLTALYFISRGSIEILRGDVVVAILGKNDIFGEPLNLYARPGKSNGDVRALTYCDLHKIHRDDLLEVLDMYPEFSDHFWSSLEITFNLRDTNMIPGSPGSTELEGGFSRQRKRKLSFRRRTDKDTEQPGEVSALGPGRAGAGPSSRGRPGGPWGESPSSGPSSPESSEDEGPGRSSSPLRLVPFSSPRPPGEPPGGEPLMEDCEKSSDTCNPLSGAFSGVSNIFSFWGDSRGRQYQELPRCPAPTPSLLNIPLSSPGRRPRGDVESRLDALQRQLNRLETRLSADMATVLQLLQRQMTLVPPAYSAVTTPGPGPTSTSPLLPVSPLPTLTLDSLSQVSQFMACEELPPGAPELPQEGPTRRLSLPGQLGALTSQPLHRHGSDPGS

Going from CCS(=O)(=O)c1ncc(Cl)c(C(=O)Nc2ccccc2OC)n1 to COc1nc(C)nc(NC(=O)NS(=O)(=O)c2ccccc2Cl)n1, the “hERG current change (%, negative = inhibition) at 1uM” value falls from 17.5% to 12.3%.

Compared with COc1cccc(-c2csc(N3CCN(C(=O)C4CCCCC4)CC3)n2)c1, CC(=O)N1CCC(N(CCN2CCOCC2)C(=S)Nc2ccccc2C)CC1 is higher in “hERG current change (%, negative = inhibition) at 1uM” value: 2.38% for the first, 16.2% for the second.

Compared with O=C1C(Cl)=C(N2CCCCCC2)C(=O)N1c1ccc(Br)cc1, NC(=O)c1ccc(Br)c(S(=O)(=O)N2CCCCC2)c1 is lower in “hERG current change (%, negative = inhibition) at 1uM” value: 12.4% for the first, 0.153% for the second.

Going from Cc1cc(C(=O)O)ccc1-n1c(C)cc(/C=C(/C#N)C(=O)Nc2ccccc2)c1C to CCOC(=O)c1nn(-c2cccc(OC)c2)c2nc(Nc3ccccc3)cc(=O)n12, the “hERG current change (%, negative = inhibition) at 1uM” value falls from 14.8% to 3.3%.

Going from COc1ccc(C2C(C(C)=O)=C(O)C(=O)N2c2ccc(Br)cn2)cc1 (stereo not drawn) to CCOc1ccc(-n2c(C)c(C(=O)OC)c3cc(O)ccc32)cc1, the “hERG current change (%, negative = inhibition) at 1uM” value rises from 6.15% to 12.2%.

Going from COC(=O)c1cc(N=Nc2c(C)[nH]c3ccccc23)cc(C(=O)OC)c1 to COC(=O)C1=C(O)/C(=C\c2ccc(OCC(=O)Nc3ccc(OC)cc3)cc2)N=C1C, the “hERG current change (%, negative = inhibition) at 1uM” value falls from 16.8% to 11.2%.

First: CCCCNC(=O)/C(=C/c1ccco1)NC(=O)c1ccco1
Second: CC(=O)C(Cc1ccccc1)NC(=O)CCl (stereo not drawn)
The “hERG current change (%, negative = inhibition) at 1uM” value of the first is higher: 14.2% for the first, 12.1% for the second.

Compared with CSc1ccccc1NC(=O)COC(=O)Cn1cc(C(F)(F)F)ccc1=O, CC(C)[C@H](N)C(=O)N1CCC(C(=O)N[C@@H](Cc2ccccc2)C(=O)NCc2ccc(F)cc2)CC1 is higher in “hERG current change (%, negative = inhibition) at 1uM” value: 7.91% for the first, 19.5% for the second.

Compared with O=C(/C=C/c1ccco1)N(Cc1cccc(Br)c1)C1CCS(=O)(=O)C1 (stereo not drawn), CCOc1ccc(S(=O)(=O)N2CCCC(C(=O)NCc3ccco3)C2)cc1 (stereo not drawn) is higher in “hERG current change (%, negative = inhibition) at 1uM” value: -8.58% for the first, 5.92% for the second.

Going from CN(C)S(=O)(=O)c1cccc(NC(=S)N(CCC#N)Cc2cccnc2)c1 to CN(C)c1nc(F)c(F)c(S(=O)(=O)c2ccccc2)c1F, the “hERG current change (%, negative = inhibition) at 1uM” value rises from 5.18% to 13.2%.

Compared with Cc1ccc(-c2nc3ccccc3o2)cc1NC(=S)NC(=O)c1cc2ccccc2o1, O=C(Nc1nnc(-c2cccs2)o1)c1cc(-c2ccccc2)nc2ccccc12 is lower in “hERG current change (%, negative = inhibition) at 1uM” value: 9.01% for the first, -0.0258% for the second.

Going from O=C1c2ccccc2C(=O)C1c1nccc2ccccc12 to CC(c1ccccc1)N1C(=O)c2cccnc2C1=O (stereo not drawn), the “hERG current change (%, negative = inhibition) at 1uM” value falls from 18.1% to 9.62%.

Going from COc1ccc(/C(O)=C2/C(=O)C(=O)N(CCCN3CCOCC3)C2c2ccc(N(C)C)cc2)cc1 (stereo not drawn) to Cc1cccc2cc3c(N)c(C(=O)Nc4ccc(N5CCOCC5)cc4)sc3nc12, the “hERG current change (%, negative = inhibition) at 1uM” value falls from 9.36% to 2.09%.

Going from CCOc1ccccc1CN1CCNC(=O)C1CC(=O)NCc1cc(C)n(C)n1 (stereo not drawn) to COc1ccc(CC(=O)N2CCCc3ccccc32)cc1OC, the “hERG current change (%, negative = inhibition) at 1uM” value falls from 15% to 11.5%.

Compared with CCCCNC(=O)CCC(=O)Nc1ccc2nc(N3CCOCC3)cc(C)c2c1, Cc1nnc(N2CCOCC2)c2ccccc12 is higher in “hERG current change (%, negative = inhibition) at 1uM” value: -0.214% for the first, 10.8% for the second.

First: CCOC(=O)c1c(SCC(=O)Nc2nc(C)cs2)nc(=O)[nH]c1C
Second: Cc1cccc(C(=O)NC(C(=O)Nc2nc(-c3ccccn3)cs2)C(C)C)c1 (stereo not drawn)
The “hERG current change (%, negative = inhibition) at 1uM” value of the first is higher: 13.4% for the first, 11.7% for the second.

First: CN1C(C(=O)NCc2ccccc2)CC2Cn3c(nc4ccccc43)C21 (stereo not drawn)
Second: Cc1c(C(=O)NCc2nnc(-c3ccccc3)o2)oc2c(F)cccc12
The “hERG current change (%, negative = inhibition) at 1uM” value of the first is higher: 6.79% for the first, 5.92% for the second.

Going from O=C(NS(=O)(=O)Nc1ccc(Cl)cc1)c1c[nH]c2ccccc12 to CC(=O)c1sc(-c2ccc(F)cc2)cc1NS(=O)(=O)c1ccc(C)cc1, the “hERG current change (%, negative = inhibition) at 1uM” value rises from 11.9% to 12.5%.

Compared with C=CCc1c(C)nc(SC)nc1Nc1ccc(C)cc1, COc1cc(Nc2cc(C)nc3ncnn23)cc(OC)c1 is lower in “hERG current change (%, negative = inhibition) at 1uM” value: 7.54% for the first, -1.96% for the second.

First: COCC(=O)Nc1nnc(-c2ccc(C(C)(C)C)cc2)s1
Second: Cc1ccc(C(c2nnnn2C(C)(C)C)N2CCC(C)CC2)cc1.Cl (stereo not drawn)
The “hERG current change (%, negative = inhibition) at 1uM” value of the first is higher: 5.84% for the first, -5.74% for the second.

Compared with CCCCN1CC(O)=C(c2nc(-c3ccc(Br)cc3)cs2)C1=N, NS(=O)(=O)c1ccc(N=Nc2c(-c3ccccc3)[nH]n(-c3nc(-c4ccccc4)cs3)c2=O)cc1 is lower in “hERG current change (%, negative = inhibition) at 1uM” value: 10.6% for the first, 9.77% for the second.

Compared with CCCCn1nnnc1NCc1cc(Cl)c(OC)c(OC)c1, COc1cccc(C(=O)NCc2ccc3c(c2)OCO3)c1 is higher in “hERG current change (%, negative = inhibition) at 1uM” value: -3.6% for the first, 15.8% for the second.

Going from C[C@@H]1NC(=O)c2cc([N+](=O)[O-])cc(I)c2NCCCC[C@@H](C(N)=O)NC(=O)[C@H](CCC(=O)O)NC1=O to CC1=C(C(=O)Nc2cccc([N+](=O)[O-])c2)C2(CCC(C)CC2)OC1=O (stereo not drawn), the “hERG current change (%, negative = inhibition) at 1uM” value rises from -2.24% to 4.04%.

First: Cc1ccc(S(=O)(=O)N(C)Cc2ccc(C(=O)N/N=C/c3ccc(OC(F)F)cc3OC(F)F)cc2)cc1
Second: Cc1ccc(-n2c(=O)cc(N3CCc4ccccc4C3)[nH]c2=O)cc1
The “hERG current change (%, negative = inhibition) at 1uM” value of the first is higher: 9.87% for the first, 8.96% for the second.

Compared with Clc1nccnc1-c1ccccc1, CC(C)(C)OC(=O)NCCCCCNC(=O)c1[nH]cnc1C(=O)Nc1ccc(Cl)cc1 is higher in “hERG current change (%, negative = inhibition) at 1uM” value: 9.54% for the first, 15.1% for the second.

Compared with COc1cc(F)c(C2=CC(=O)C[C@H](c3ccc4c(c3)OCO4)C2)cc1F, Cc1cc(C)cc(N(CCC#N)C(=O)COC(=O)C2CCN(S(=O)(=O)c3ccc(C)c(C)c3)CC2)c1 is lower in “hERG current change (%, negative = inhibition) at 1uM” value: 9.28% for the first, 4.75% for the second.

First: O=C1CCCN1CCC1CCN(C2CC(=O)N(c3ccc(F)cc3)C2=O)CC1 (stereo not drawn)
Second: CCc1c(C)sc(NC(=O)Cn2nc(C(F)(F)F)c3c2CCCC3)c1C#N
The “hERG current change (%, negative = inhibition) at 1uM” value of the first is higher: 4.58% for the first, -1.36% for the second.
